# Source: PubChem BioAssay (Tox21)
# Where “and” joins values, the source holds several entries; their conditions need not be identical. Equal values may be shown once. The shares of active, inactive and inconclusive entries below differ from those in the screen. For some assays here: Where the call is inconclusive, the potency comes from a doubtful curve fit. Calls of active or inactive are those of the source. Unless noted, the call rests on the fitted dose curve; in most records, active means well fitted curve in the direction sought with a large enough effect in the repeat runs; inconclusive means weak or mixed curves; inactive means no such curve, though single readings can be large; an effect the other way counts as inactive or inconclusive.
# Tests used:
# [1] = biological target: Progesterone receptor (Homo sapiens) (UniProt P06401); experiment: qHTS assay to identify small molecule antagonists of the progesterone receptor (PR) signaling pathway (AID 1346795; active means well fitted inhibition curve with a large enough effect in the signal ratio in the repeat runs, not every such curve was filed as active; inconclusive means weak or mixed curves; the % refers to the signal ratio; further: potency means the concentration at half of the fitted maximal effect; on activity change, negative = inhibition: on the % scale 0 is the no-effect control and ±100 the full control effect); conditions: PR-UAS-bla HEK293T, beta-lactamase FRET ratio, 16 h; activity change, negative = inhibition: at 92.4 µM (top of the series) unless noted
# UniProt P06401, sequence (P06401 whole entry, looked up): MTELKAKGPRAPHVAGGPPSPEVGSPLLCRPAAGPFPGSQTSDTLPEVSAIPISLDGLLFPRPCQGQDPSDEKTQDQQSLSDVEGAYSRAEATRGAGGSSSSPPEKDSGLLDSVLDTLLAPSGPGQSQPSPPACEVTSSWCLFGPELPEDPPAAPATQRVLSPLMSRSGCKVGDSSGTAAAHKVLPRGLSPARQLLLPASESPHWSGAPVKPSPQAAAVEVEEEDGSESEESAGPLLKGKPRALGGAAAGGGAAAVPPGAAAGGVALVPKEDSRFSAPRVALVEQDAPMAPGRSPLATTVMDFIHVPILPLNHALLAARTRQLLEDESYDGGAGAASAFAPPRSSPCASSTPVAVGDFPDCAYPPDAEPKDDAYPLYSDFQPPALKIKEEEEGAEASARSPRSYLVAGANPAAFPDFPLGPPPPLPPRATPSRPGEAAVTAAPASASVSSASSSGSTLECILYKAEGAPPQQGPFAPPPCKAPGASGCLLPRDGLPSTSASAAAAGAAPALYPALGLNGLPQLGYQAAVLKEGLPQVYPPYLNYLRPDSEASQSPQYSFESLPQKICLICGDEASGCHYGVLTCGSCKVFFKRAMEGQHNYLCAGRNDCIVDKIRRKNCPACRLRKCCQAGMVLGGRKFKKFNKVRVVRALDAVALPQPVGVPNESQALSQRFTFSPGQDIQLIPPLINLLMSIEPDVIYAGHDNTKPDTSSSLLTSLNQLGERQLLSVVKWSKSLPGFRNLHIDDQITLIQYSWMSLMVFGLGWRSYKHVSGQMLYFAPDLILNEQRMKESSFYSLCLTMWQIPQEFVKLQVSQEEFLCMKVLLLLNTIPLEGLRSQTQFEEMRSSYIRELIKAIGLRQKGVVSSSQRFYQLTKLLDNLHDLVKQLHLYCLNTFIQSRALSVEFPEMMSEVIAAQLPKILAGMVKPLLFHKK
# Method in brief: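 PR-UAS-bla HEK293T cells with beta-lactamase reporter under UAS control, in 2% charcoal-stripped FBS, treated with compounds plus 1 nM promegestone (R5020, final) for 16 hr at 37C. Read-out: FRET beta-lactamase substrate fluorescence after 2 hr at room temperature.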
# [2] = qHTS assay to identify small molecule antagonists of the progesterone receptor (PR) signaling pathway - cell viability counter screen (AID 1346798); further: potency means the concentration at half of the fitted maximal effect; nearly all actives have a fitted effect of over 50% in size
# Method in brief: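 PR-UAS-bla HEK293T cells, 3,000/well in 2% charcoal-stripped FBS medium, dosed with compounds plus R5020 agonist and incubated 16 h at 37C. Viability then measured in the same wells by CellTiter-Glo luminescence after 30 min at RT.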
# [3] = qHTS assay to identify small molecule agonists of the progesterone receptor (PR) signaling pathway - cell viability counter screen (AID 1346799; calls by dose curve; further: nearly all actives have a fitted effect of over 45% in size; further: potency means the concentration at half of the fitted maximal effect; on activity change, negative = cytotoxicity: on the % scale 0 is the no-effect control and ±100 the full control effect)
# Method in brief: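 Counter screen in the PR-UAS-bla HEK293T wells (2% charcoal-stripped FBS, 16 h compound exposure at 37 C) after the bla read. CellTiter-Glo added, 30 min at room temperature, luminescence read as cell viability.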
# [4] = qHTS assay to identify small molecule agonists of the TGF-beta/Smad signaling pathway (AID 1346859; active means well fitted activation curve with a large enough effect in the signal ratio in the repeat runs, not every such curve was filed as active; inconclusive means weak or mixed curves; the % refers to the signal ratio; further: potency means the concentration at half of the fitted maximal effect); conditions: SBE-bla HEK293T, TGF-beta/Smad beta-lactamase reporter, 5 h; activation: at 76.8 µM (top of the series)
# Method in brief: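 SBE-bla HEK293T cells plated overnight, then compound exposure for 5 h at 37 C. Beta-lactamase reporter read with LiveBLAzer B/G FRET substrate after 2 h at room temperature, fluorescence at 405 nm excitation, 460/530 nm emission.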
# [5] = Caspase-3/7 induction in HepG2 cells by small molecules, qHTS assay (AID 1346978); further: potency means the concentration at half of the fitted maximal effect; nearly all actives have a fitted effect of over 15% in size
# Method in brief: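 Wild-type HepG2 cells (2,000/well) were settled 5 h at 37 C, 5% CO2, then exposed to compounds in DMSO for 17 h. Caspase-3/7 activity was read by luminescence 30 min after adding Caspase-Glo 3/7 reagent at room temperature.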
# [6] = Caspase-3/7 induction in CHO-K1 cells by small molecules, qHTS cell viability counter screen (AID 1346979); conditions: CellTiter-Fluor fluorescence, 17 h; activity change, negative = cytotoxicity: at 92.4 µM (top of the series); further: potency means the concentration at half of the fitted maximal effect; nearly all actives have a fitted effect of over 35% in size
# Method in brief: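 Wild-type CHO-K1 cells (1,500/well) treated with compound after 5 h plating; after 16 h at 37C, viability read as CellTiter-Fluor fluorescence following 1 h reagent incubation, in the same wells as the caspase read.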
# [7] = Caspase-3/7 induction in CHO-K1 cells by small molecules, qHTS assay (AID 1346980); further: potency means the concentration at half of the fitted maximal effect; nearly all actives have a fitted effect of over 15% in size
# Method in brief: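 Wild-type cells were seeded at 1,500 per well and settled 5 hr at 37 C, 5% CO2, then exposed to DMSO-dissolved compounds for 17 hr. Caspase-Glo 3/7 reagent was added, and luminescence was read after 30min at room temperature.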
# [8] = Caspase-3/7 induction in HepG2 cells by small molecules, qHTS cell viability counter screen (AID 1346981); further: potency means the concentration at half of the fitted maximal effect; nearly all actives have a fitted effect of over 30% in size
# Method in brief: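 Viability determined by CellTiter-Fluor fluorescence in HepG2 wells also used for the luminescent Caspase-Glo 3/7 read. Compounds were present for 16 hr at 37 C, 5% CO2 before reagent addition.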
# [9] = Human pregnane X receptor (PXR) small molecule agonists, qHTS cell viability counter screen (AID 1346977); further: potency means the concentration at half of the fitted maximal effect; nearly all actives have a fitted effect of over 50% in size
# Method in brief: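 PXR-Luc HepG2 cells (2,000/well, 5% charcoal-stripped FBS) preincubated 5 hr, then exposed to compounds 24 hr at 37 C. Viability read in the same wells by CellTiter-Fluor fluorescence, reagent added at 23 hr, 1 hr incubation.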
# [10] = qHTS assay to identify small molecule antagonists of the TGF-beta/Smad signaling pathway (AID 1346924; active means well fitted inhibition curve with a large enough effect in the signal ratio in the repeat runs, not every such curve was filed as active; inconclusive means weak or mixed curves; the % refers to the signal ratio); conditions: SBE-bla HEK293T, TGF-beta/Smad reporter, beta-lactamase ratio; activity, negative = inhibition: at 76.8 µM (top of the series) unless noted
# Method in brief: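 SBE-bla HEK 293T cells were plated overnight, then received compound in DMSO plus TGF-beta1 (added as a 0.25 ng/mL solution) and were incubated 5 h at 37 C. Beta-lactamase reporter activity was read after 2 h at room temperature with LiveBLAzer B/G FRET substrate (ex 405, em 460/530 nm).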
# [11] = biological target: Nuclear receptor subfamily 1 group I member 2 (Homo sapiens) (UniProt O75469); experiment: Human pregnane X receptor (PXR) small molecule agonists, qHTS assay (AID 1346982); further: potency means the concentration at half of the fitted maximal effect; nearly all actives have a fitted effect of over 35% in size
# UniProt O75469, sequence (O75469 whole entry, looked up): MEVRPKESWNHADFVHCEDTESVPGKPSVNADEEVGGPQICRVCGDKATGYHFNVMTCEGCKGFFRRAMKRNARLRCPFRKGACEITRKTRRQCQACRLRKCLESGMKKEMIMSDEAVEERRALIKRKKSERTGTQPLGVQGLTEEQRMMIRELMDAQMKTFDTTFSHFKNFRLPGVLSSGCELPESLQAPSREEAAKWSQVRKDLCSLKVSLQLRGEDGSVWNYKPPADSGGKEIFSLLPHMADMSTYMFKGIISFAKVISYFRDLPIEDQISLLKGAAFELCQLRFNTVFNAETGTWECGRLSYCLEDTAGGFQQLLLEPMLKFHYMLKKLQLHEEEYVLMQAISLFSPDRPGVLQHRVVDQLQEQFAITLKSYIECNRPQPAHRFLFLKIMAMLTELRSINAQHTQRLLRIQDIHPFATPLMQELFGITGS
# Method in brief: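 Compound-induced hPXR transactivation of a CYP3A4 luciferase reporter was scored in HepG2 PXR-Luc cells over 24 hr at 37 C, 5% CO2, by luminescence.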
# [12] = biological target: Cytochrome P450 2C19 (Homo sapiens) (UniProt P33261); experiment: Cytochrome P450 Family 2 Subfamily C Member 19 (CYP2C19) small molecule antagonists: luciferase reporter qHTS assay (AID 1671197); further: potency means the concentration at half of the fitted maximal effect; nearly all actives have a fitted effect of over 65% in size
# UniProt P33261, sequence (P33261 whole entry, looked up): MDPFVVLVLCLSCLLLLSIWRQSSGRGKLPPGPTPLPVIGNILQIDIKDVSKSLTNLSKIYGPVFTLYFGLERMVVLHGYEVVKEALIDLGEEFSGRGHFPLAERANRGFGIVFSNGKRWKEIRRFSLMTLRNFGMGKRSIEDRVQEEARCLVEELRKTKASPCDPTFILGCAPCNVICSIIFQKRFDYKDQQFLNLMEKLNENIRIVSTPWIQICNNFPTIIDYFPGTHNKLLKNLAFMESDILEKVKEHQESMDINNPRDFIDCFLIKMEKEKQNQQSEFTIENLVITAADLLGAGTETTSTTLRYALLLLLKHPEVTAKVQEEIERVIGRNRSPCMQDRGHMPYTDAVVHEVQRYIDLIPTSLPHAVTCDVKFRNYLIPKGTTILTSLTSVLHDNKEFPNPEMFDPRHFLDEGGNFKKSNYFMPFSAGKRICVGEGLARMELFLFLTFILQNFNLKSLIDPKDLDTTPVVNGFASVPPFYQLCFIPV
# Method in brief: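 P450-Glo CYP2C19 screening system; proluciferin substrate; DMSO compound stocks; 10 min RT preincubation; NADPH regeneration, 1 h at 37C; luciferin detection reagent, 20 min RT; luminescence as RLU.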
# Tags describe the fitted curve by direction and shape or compound fluorescence and quenching.
smiles,measurement,setting,value
CC(C)c1c(C(=O)Nc2ccccc2)c(-c2ccccc2)c(-c2ccc(F)cc2)n1CC[C@@H](O)C[C@@H](O)CC(=O)O,"activity change, negative = inhibition",[1],inconclusive: -38.4%
same,Potency,[2],"inconclusive: 2.09 µM [cytotoxic, full curve] and active: 6.41 µM and inconclusive: 4.73 µM [cytotoxic, full curve]"
same,Potency,[3],active: 1.48 µM and active: 227 nM and active: 2.11 µM
same,Potency,[4],"inconclusive: 18.8 µM [rising, single point] and inconclusive: 51.3 µM [rising, single point]"
same,Potency,[5],"active: 26.3 µM and inconclusive: 57.1 µM [activator, partial curve] and inconclusive: 23.7 µM [activator, partial curve, poor fit]"
same,Potency,[6],"inconclusive: 23.4 µM [cytotoxic, partial curve] and inconclusive: 57.1 µM [cytotoxic, partial curve] and inconclusive: 29.8 µM [cytotoxic, partial curve]"
same,Potency,[7],"inconclusive: 36 µM [activator, partial curve]"
same,Potency,[8],"inconclusive: 26.3 µM [cytotoxic, partial curve] and inconclusive: 57.1 µM [cytotoxic, partial curve]"
O=C1CCc2cc(OCCCCc3nnnn3C3CCCCC3)ccc2N1,"activity change, negative = inhibition",[1],inconclusive: -22.7% [at 42.5 µM]
same,Potency,[2],inconclusive: 26.6 µM
same,Potency,[3],"inconclusive: 13.3 µM [rising, partial curve]"
same,Potency,[4],"inconclusive: 21.3 µM [rising, partial curve]"
same,Potency,[9],inconclusive: 33.5 µM [cytotoxic]
same,Potency,[6],"inconclusive: 33.5 µM [cytotoxic, single point]"
N#Cc1cc2ccccc2c2ccccc12,Potency,[1],"inconclusive: 68.9 µM [rising, single point]"
same,Potency,[2],"inconclusive: 77.4 µM [cytotoxic, single point]"
same,Potency,[3],inactive
O=C(OCC(O)CO)c1ccccc1Nc1ccnc2cc(Cl)ccc12 (centres undefined),Potency,[1],active: 21.1 µM
same,Potency,[2],"inconclusive: 33.5 µM [cytotoxic, single point]"
same,Potency,[3],"inconclusive: 33.5 µM [cytotoxic, single point]"
same,"activity, negative = inhibition",[10],inconclusive: 7.15% [at 35.3 µM]
same,Potency,[9],active: 26.6 µM
O=c1[nH]c2ccccc2n1CCCN1CCN(C(c2ccccc2)c2ccccc2)CC1,Potency,[1],active: 29.8 µM
same,Potency,[2],"inconclusive: 33.5 µM [cytotoxic, single point]"
same,Potency,[3],"inconclusive: 33.5 µM [cytotoxic, single point]"
same,Potency,[4],"inconclusive: 19 µM [rising, partial curve]"
same,Potency,[8],"inconclusive: 33.5 µM [cytotoxic, single point]"
same,Potency,[11],active: 4.22 µM
same,Potency,[12],"inconclusive: 38.9 µM [inhibitor, single point]"
